PMC4336329 (PLoS ONE, 2015)
The campaign covered roughly 310,000 compounds. About 2,200 (0.71%) showed an effect of 50% or more. The effect is printed as a negative number. The list shows a part of the results.

These molecules were tested against human ether-à-go-go-related gene (hERG) potassium channel (human, UniProt Q12809) (assay: primary screen, population patch clamp on CHO cells stably expressing hERG).
human ether-à-go-go-related gene (hERG) potassium channel, sequence (Q12809 whole entry, looked up): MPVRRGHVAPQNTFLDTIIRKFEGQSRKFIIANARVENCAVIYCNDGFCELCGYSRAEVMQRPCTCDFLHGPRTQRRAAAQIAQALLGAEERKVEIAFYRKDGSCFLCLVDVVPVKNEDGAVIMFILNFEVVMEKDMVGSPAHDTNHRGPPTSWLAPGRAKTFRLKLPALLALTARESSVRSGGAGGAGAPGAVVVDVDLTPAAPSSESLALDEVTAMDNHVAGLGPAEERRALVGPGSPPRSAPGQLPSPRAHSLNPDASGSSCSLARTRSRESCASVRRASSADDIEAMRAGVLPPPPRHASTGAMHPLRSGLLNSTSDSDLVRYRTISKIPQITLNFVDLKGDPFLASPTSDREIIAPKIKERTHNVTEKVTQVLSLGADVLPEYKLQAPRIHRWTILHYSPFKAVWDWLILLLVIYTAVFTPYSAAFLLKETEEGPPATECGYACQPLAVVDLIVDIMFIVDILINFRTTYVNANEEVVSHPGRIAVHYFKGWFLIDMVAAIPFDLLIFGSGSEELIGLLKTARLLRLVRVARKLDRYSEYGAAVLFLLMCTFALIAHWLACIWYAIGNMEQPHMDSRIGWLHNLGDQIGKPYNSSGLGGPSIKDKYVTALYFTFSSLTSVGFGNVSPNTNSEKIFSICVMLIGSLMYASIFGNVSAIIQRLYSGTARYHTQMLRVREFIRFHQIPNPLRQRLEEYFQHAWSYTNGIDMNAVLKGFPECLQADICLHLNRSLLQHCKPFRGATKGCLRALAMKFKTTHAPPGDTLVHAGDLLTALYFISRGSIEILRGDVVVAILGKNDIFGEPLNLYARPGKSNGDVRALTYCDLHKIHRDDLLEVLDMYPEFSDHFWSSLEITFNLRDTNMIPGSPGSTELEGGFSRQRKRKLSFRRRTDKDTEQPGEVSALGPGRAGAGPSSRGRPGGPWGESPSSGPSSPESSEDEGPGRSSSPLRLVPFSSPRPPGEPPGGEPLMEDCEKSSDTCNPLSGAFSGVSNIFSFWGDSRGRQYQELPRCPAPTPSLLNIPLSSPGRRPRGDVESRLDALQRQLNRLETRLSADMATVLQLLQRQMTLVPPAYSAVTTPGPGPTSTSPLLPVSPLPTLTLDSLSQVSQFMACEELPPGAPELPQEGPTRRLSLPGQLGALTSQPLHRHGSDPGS

| SMILES | hERG current change (%, negative = inhibition) at 1uM [%] |
| --- | --- |
| Cc1ccc(S(=O)(=O)NCCC2(C(C)C)CCOC(C)(C)C2)cc1 (centres unmarked) | 5.74 |
| Cc1cccc(N2CCN(C(c3ccccc3)c3nnnn3C(C)(C)C)CC2)c1C (centres unmarked) | 15.1 |
| C=CCc1ccc(OC)c(OC)c1 | 15.8 |
| CCOC(=O)C1CCCN(C(=O)c2cc(Cl)ccc2Cl)C1 (centres unmarked) | 15.3 |
| Cc1oc2ncnc(N)c2c1C | 5.54 |
| CCn1nc(C(=O)Nc2ccccc2N2CCCC2)c2ccccc2c1=O | 5.21 |
| N#Cc1ccc(N2C(=O)[C@@H]3C(C(=O)c4cnccn4)=NN[C@@H]3C2=O)cc1 | 12.8 |
| CCC(Oc1ccccc1OC)C(=O)Nc1ccc2c(c1)OCO2 (centres unmarked) | 9.36 |
| CCOc1ccc(NC(=O)c2ccc(C#CC(C)(C)O)cc2)cc1 | 9.96 |
| Cc1ccc(/C=N/n2c(-c3ccncc3)n[nH]c2=S)s1 | 9.72 |
| COCCCNc1nc2c(c(=O)[nH]c(=O)n2C)n1CC(O)COc1cccc(C)c1 (centres unmarked) | 12.1 |
| NNP(=O)(CC(=O)c1ccccc1)c1ccccc1 (centres unmarked) | 18.2 |
| O=C(CN1C(=O)NC(c2ccccc2)(c2ccccc2)C1=O)NCC(=O)Nc1ccc(F)cc1 | 7.33 |
| O=C1N=C(N2CCc3ccccc3C2)S/C1=C\c1ccc(O)cc1 | 10.3 |
| Cc1c(NC(=O)c2ccc3nsnc3c2)cccc1[N+](=O)[O-] | 14.9 |
| COc1ccc(CN2CCOCC2)cc1OC | 5.79 |
| COC(=O)Nc1ccc(S(=O)(=O)NNC(=O)c2c(O)c3ccccc3n(C)c2=O)cc1 | 35.7 |
| O=C(COC(=O)CCc1nc2ccccc2c(=O)[nH]1)Nc1ccc(Cl)cn1 | 8.63 |
| CCS(=O)(=O)NCC(c1cccnc1)N1CCN(c2ccccc2F)CC1 (centres unmarked) | 14.4 |
| CC(=O)N1CCc2cc(S(=O)(=O)NCCC(=O)NCCc3ccc(Cl)cc3)ccc21 | 10.7 |
| CC(=O)Nc1sc(C)c(C)c1C(=O)OCC(=O)Nc1cc(S(C)(=O)=O)ccc1Cl | 8.66 |
| CC1CCCC(NC(=O)CCNC(=O)c2ccc(Br)cc2)C1C (centres unmarked) | 14.1 |

| SMILES | hERG current change (%, negative = inhibition) at 1uM [%] |
| --- | --- |
| CCOC(=O)c1c(NC(=O)C(=O)N/N=C/c2ccc(O)c(OC)c2)sc2c1CCCCC2 | 3.13 |
| Cc1ccc(/C=N/NC(=O)C(C)Oc2ccccc2[N+](=O)[O-])s1 (centres unmarked) | 6.63 |
| O=C(Nc1ccc(-c2noc(-c3cccs3)n2)cc1)c1cccnc1 | 7 |
| O=C(/C=C/c1ccccc1Cl)NCCN1CCOCC1 | 1.11 |
| CC(=O)Oc1ccc(N2C(=O)[C@@H]3[C@H](C2=O)[C@H]2c4ccccc4C=NN2[C@@H]3C(C)=O)cc1 | 0.504 |
| CNC(=O)c1c(NC(=O)CCS(=O)(=O)c2ccc(C)cc2)sc2c1CCN(C(=O)OC)C2 | 1.06 |
| Cc1cccc(C(=O)N/N=C/c2cc(Br)c(Br)o2)c1 | 1.03 |
| COCCN(CCOC)c1nc(N)c2c(N)nc3c(c2c1C#N)CC(=O)N3Cc1ccc(Cl)cc1 | -14 |
| Cc1ccc(S(=O)(=O)[N-]c2nc3ccccc3nc2-n2cc[n+](Cc3ccccc3)c2)cc1 | 8.75 |
| Cc1ccc(C)c(S(=O)(=O)N(C)Cc2cccs2)c1 | 1.44 |
| COc1cc(C(=O)N/N=C/c2cc([N+](=O)[O-])cs2)cc(OC)c1OC | 0.725 |
| Cn1cc(C(=O)N/N=C/C(Br)=C\c2ccccc2)ccc1=O | 6.73 |
| NC(=O)c1ccsc1NC(=O)COC(=O)/C=C/c1ccccc1 | 2.34 |
| Cc1cc(C(=O)NNC(=S)NCc2ccccc2)cs1 | 13.7 |
| CCOc1cc(C2/C(=C(/O)c3ccc(S(=O)(=O)N4CCCCC4)cc3)C(=O)C(=O)N2CCOC)ccc1O (centres unmarked) | 12.1 |
| O=C(NCCCN1CCOCC1)c1cc2c(s1)CCC2 | 13.3 |
| CC(NC(=O)c1ccco1)C12CC3CC(CC(C3)C1)C2 (centres unmarked) | 7.25 |
| CCc1noc(C)c1C(=O)OCC(=O)Nc1c(F)cccc1F | 11.1 |
| Cc1ccc(OCCC(=O)OCC(=O)Nc2ccc(C)cc2Cl)cc1 | 2.07 |
| COc1ccc(CCN=C(N)NS(=O)(=O)c2ccc(F)cc2)cc1 | 14.6 |
| Cc1c(C(=O)Nc2ccc(F)cc2)oc2ccc(S(=O)(=O)N3CCCC3)cc12 | 10.1 |
| COc1ccc(N=C(C)c2c(O)n(C)c(=O)n(C)c2=O)c(OC)c1 | 12.8 |
